Data: the supplement of paper PMC12578646, “Prodrug florfenicol amine is activated by intrinsic resistance to target Mycobacterium abscessus” (Nature Microbiology, 2025)
M. abscessus ATCC 19977 and its deletion, point and complemented mutants after 5 days of drug at 37 °C plus 24 h of resazurin. Growth in % of untreated wells at the dose given (lower = more inhibition); checkerboards give % inhibition (higher = more inhibition); IC50 from the fitted curve (lower = more potent). No active / inactive call. IC50 values come from the same 384-well curves. Growth is not capped and can exceed 100%. The direction of the checkerboard scale is read from the raw signals. Capreomycin is a mixture.

How the values were obtained:
Test in all cases: growth relative to untreated wells; higher = more growth (less inhibition)
[1] = system: Mycobacterium abscessus ATCC 19977 ΔwhiB7
Procedure: (§1)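 384-well two-fold dose series, two replicates; 5 days at 37 °C, then 24 h with resazurin; fluorescence scaled to growth and killed controls.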

[2] = system: Mycobacterium abscessus ATCC 19977 Δeis2
Procedure: as §1

[3] = system: Mycobacterium abscessus ATCC 19977 Eis2 Y284*
Procedure: as §1

[4] = system: Mycobacterium abscessus ATCC 19977 Eis2 Y227D
Procedure: as §1

[5] = system: Mycobacterium abscessus ATCC 19977 Eis2 T258R
Procedure: as §1

[6] = system: Mycobacterium abscessus ATCC 19977 WhiB7 F24fs
Procedure: as §1

[7] = system: Mycobacterium abscessus ATCC 19977 Eis2 E120fs
Procedure: as §1

[8] = system: Mycobacterium abscessus ATCC 19977 Eis2 Y255*
Procedure: as §1

[9] = system: Mycobacterium abscessus ATCC 19977 WhiB7 A51T
Procedure: as §1

[10] = system: Mycobacterium abscessus ATCC 19977 WhiB7 L37P
Procedure: as §1

[11] = system: Mycobacterium abscessus ATCC 19977 WhiB7 T70fs
Procedure: as §1

[12] = system: Mycobacterium abscessus ATCC 19977
Procedure: as §1

O=C(N[C@H](CO)[C@H](O)c1ccc([N+](=O)[O-])cc1)C(Cl)Cl [chloramphenicol]
Details	growth [%]
[1], 0.5 µg/mL	91
[1], 1 µg/mL	97.7
[1], 2 µg/mL	97.7
[1], 4 µg/mL	118
[1], 8 µg/mL	119
[1], 16 µg/mL	84.6
[1], 32 µg/mL	47.1
[1], 64 µg/mL	15.7
[1], 128 µg/mL	1.73
[1], 256 µg/mL	-3.73
[1], 512 µg/mL	-4.45
[1], 1024 µg/mL	-5.33
[2], 0.5 µg/mL	96.5
[2], 1 µg/mL	99.3
[2], 2 µg/mL	98.4
[2], 4 µg/mL	101
[2], 8 µg/mL	99.8
[2], 16 µg/mL	106
[2], 32 µg/mL	108
[2], 64 µg/mL	81.6
[2], 128 µg/mL	56
[2], 256 µg/mL	11.7
[2], 512 µg/mL	12.6
[2], 1024 µg/mL	-2.85
[3], 0.5 µg/mL	101.5
[3], 1 µg/mL	101
[3], 2 µg/mL	95
[3], 4 µg/mL	107.2
[3], 8 µg/mL	105
[3], 16 µg/mL	115
[3], 32 µg/mL	114
[3], 64 µg/mL	110
[3], 128 µg/mL	74.1
[3], 256 µg/mL	21.7
[3], 512 µg/mL	6.78
[3], 1024 µg/mL	-2.458
[4], 0.5 µg/mL	109
[4], 1 µg/mL	108
[4], 2 µg/mL	97
[4], 4 µg/mL	108
[4], 8 µg/mL	110
[4], 16 µg/mL	118
[4], 32 µg/mL	118
[4], 64 µg/mL	117
[4], 128 µg/mL	112
[4], 256 µg/mL	41.5
[4], 512 µg/mL	24.8
[4], 1024 µg/mL	0.729
[5], 0.5 µg/mL	98.56
[5], 1 µg/mL	94
[5], 2 µg/mL	99.41
[5], 4 µg/mL	106
[5], 8 µg/mL	105.1
[5], 16 µg/mL	110
[5], 32 µg/mL	108
[5], 64 µg/mL	87.5
[5], 128 µg/mL	64.3
[5], 256 µg/mL	9.42
[5], 512 µg/mL	3.66
[5], 1024 µg/mL	-3.03
[6], 0.5 µg/mL	106
[6], 1 µg/mL	106
[6], 2 µg/mL	108
[6], 4 µg/mL	111.4
[6], 8 µg/mL	111
[6], 16 µg/mL	80.2
[6], 32 µg/mL	25.9
[6], 64 µg/mL	5.61
[6], 128 µg/mL	-1.74
[6], 256 µg/mL	-2.73
[6], 512 µg/mL	-2.75
[6], 1024 µg/mL	-2.71
[7], 0.5 µg/mL	103
[7], 1 µg/mL	110
[7], 2 µg/mL	107.5
[7], 4 µg/mL	112
[7], 8 µg/mL	114
[7], 16 µg/mL	114
[7], 32 µg/mL	120
[7], 64 µg/mL	118
[7], 128 µg/mL	110
[7], 256 µg/mL	40.4
[7], 512 µg/mL	18.7
[7], 1024 µg/mL	-1.89
[8], 0.5 µg/mL	101
[8], 1 µg/mL	102
[8], 2 µg/mL	103
[8], 4 µg/mL	108.2
[8], 8 µg/mL	107
[8], 16 µg/mL	112.8
[8], 32 µg/mL	116.9
[8], 64 µg/mL	110
[8], 128 µg/mL	84.4
[8], 256 µg/mL	31.6
[8], 512 µg/mL	13.5
[8], 1024 µg/mL	-3.39
[9], 0.5 µg/mL	104
[9], 1 µg/mL	106
[9], 2 µg/mL	106
[9], 4 µg/mL	119
[9], 8 µg/mL	123
[9], 16 µg/mL	102
[9], 32 µg/mL	45.4
[9], 64 µg/mL	11.7
[9], 128 µg/mL	8.16
[9], 256 µg/mL	-2.68
[9], 512 µg/mL	-2.83
[9], 1024 µg/mL	-3.32
[10], 0.5 µg/mL	101
[10], 1 µg/mL	104
[10], 2 µg/mL	110
[10], 4 µg/mL	113
[10], 8 µg/mL	120
[10], 16 µg/mL	111
[10], 32 µg/mL	46.4
[10], 64 µg/mL	12.5
[10], 128 µg/mL	1.16
[10], 256 µg/mL	-2.05
[10], 512 µg/mL	-2.37
[10], 1024 µg/mL	-3.09
[11], 0.5 µg/mL	95.9
[11], 1 µg/mL	98.28
[11], 2 µg/mL	102
[11], 4 µg/mL	113
[11], 8 µg/mL	116.4
[11], 16 µg/mL	78.7
[11], 32 µg/mL	31.5
[11], 64 µg/mL	4.21
[11], 128 µg/mL	-2.65
[11], 256 µg/mL	-4.87
[11], 512 µg/mL	-4.87
[11], 1024 µg/mL	-4.4
[12], 0.5 µg/mL	99.3
[12], 1 µg/mL	105
[12], 2 µg/mL	99.96
[12], 4 µg/mL	109
[12], 8 µg/mL	106
[12], 16 µg/mL	110
[12], 32 µg/mL	109
[12], 64 µg/mL	89.9
[12], 128 µg/mL	62.8
[12], 256 µg/mL	15.3
[12], 512 µg/mL	6.67
[12], 1024 µg/mL	-2.09
